Laboratory results: the supplement of paper PMC11417369
± gives the standard deviation of the averaged measurements. Some of the results follow.

These sequences were tested on PfAP2-G AP2 domain (GST-tagged) (assay: gcPBM binding intensity (ln(normalized median fluorescence intensity)); higher = stronger DNA binding).
Outline: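 DNA-binding domains from P. falciparum, fused to GST and produced in E. coli, were put on an Agilent 4 × 180k double-stranded probe array for 1 h in 1× PBS holding 1% milk, 0.2 mg/ml BSA, 0.5% salmon testes DNA and 0.03% Triton X-100. Probes were primer-extended, 36 bp long and drawn from intergenic genomic regions, with negative controls included. After Alexa488 anti-GST antibody detection and a 488 nm scan, binding intensity was set as the highest Masliner-normalised natural-log median intensity across replicate spots of either probe orientation.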

Sequence	gcPBM binding intensity (ln)
AATTTGTTATGTATATGTACATAAATAGATATATGA [XGTACX_site3930]	11.2 ± 0.7
AACCATATTTAGATTACACACAGTTTAAATATTTTA [CACACA_site6712]	9.9 ± 0.042
AATATGAACAGACACACACACACAAAAAAAAAAAAA [CACACA_site2012]	10.1 ± 0.52
TATTAAAGGGGTTTCACACACATGTATAATTAATTT [CACACA_site200]	9.915 ± 0.078
TCCAGGTATTTATTCTGTACACATAAAACATTTTAT [XGTACX_site8472]	11.3 ± 0.83
TCGTCTCTTCTTGTTCTGTTTTAGAAGGCTATATAT [CACACA_negctrl_site180]	10.1 ± 0.19
AGGAGGTCAGTTCACAGTACCCAGAAAACTCTACGA [XGTACX_site1992]	11.1 ± 0.78
TCTTGACGAAGTAGAAGGATATATATATAAAAAAAA [CACACA_negctrl_site641]	9.85
AAAATCCAGTTTTCAAAATTGAACAAAAAAAAAATA [GTGCAC_negctrl_site542]	9.81 ± 0.014
TATTTTTCTTTATTGGTACACACGAAAAAAAAATTG [CACACA_site3054]	11.3 ± 0.97
TATTTAATATATTTATGTACATATTTATTTATTATT [XGTACX_site524]	11.4 ± 0.79
AAGAAGCATAAATGTACACACATATTTATATATCAA [CACACA_site6743]	11.3 ± 0.91
AAAATATATATGTATGTTTATATGTTTATATATATT [XGTACX_negctrl_site337]	9.54 ± 0.18
AAAAAAAAATTTAAGTGTACATTCCATTTTAGTTTA [XGTACX_site5286]	11.2 ± 0.61
TCTAAGTATAAAGACACACAGAATAAAAAAAAATAT [CACACA_site2367]	10.1 ± 0.19
TTTATTTATATTTATACACACAAACATAATACTACT [CACACA_site7039]	10.3 ± 0.28
AAAGGATATGGACACACACACACATATATATATATA [CACACA_site8686]	11 ± 0.64
CAACACTTATTGAAACGTACGCATATAGTTTCTTTT [XGTACX_site8960]	11 ± 0.55
ATATATTTTTTAAACACACACATAAATATTTGTGTA [CACACA_site2879]	9.925 ± 0.035
AATAAAATAATAAAAGCACACAAGAATACAGACAAA [CACACA_site112]	10.09 ± 0.014
ATGTAAAACATAAAATGTACATATTATACAAACTAT [XGTACX_site5797]	11.1 ± 0.56
TAAGTATAAATATTTACACACATTTGTTTTTTTTTA [CACACA_site7731]	9.78 ± 0.13

Sequence	gcPBM binding intensity (ln)
TAATATAATATATGCACACAAATATGTATATATGTG [CACACA_site2134]	10.3 ± 0.2
GGATAATATATTAGAACACACATATATCTGTAAAAA [CACACA_site4266]	10.01 ± 0.028
TGTGTTGTAACAAAATGTACGAGCTTGATGTAGAAT [XGTACX_site2293]	10.8 ± 0.47
ATAAACTGATGTGTATGTACACATGTAATAATAAAT [XGTACX_site7649]	11.4 ± 0.97
AATGTAGGTTTATTTACACACAAATATAAATATATA [CACACA_site1523]	9.845 ± 0.035
AACTATTTTATTATATGTACTTACGAATTTATAAAA [XGTACX_site5262]	11.3 ± 1
TAATATACATAATAATGTACATATTTTCATATATAC [XGTACX_site6913]	11 ± 0.5
CACAAAATAAATTAAACACACAACATCAGATATGTA [CACACA_site6529]	9.905 ± 0.078
ATTTAAATTATAAAATGTACATTTAACAAATTTTAT [XGTACX_site770]	10.9 ± 0.59
TGTAATCTGGAGAAAAGTACACAGTATCTGGTAGCT [XGTACX_site2039]	11.3 ± 0.86
TAACATTATATATATTGTACATAGTAAATATTATAT [XGTACX_site5421]	10.6 ± 0.45
TATACAACGTTAAGCACACACAAAAAAAATTTAATA [CACACA_site3086]	10 ± 0.18
ATATATGGGGCGCAGGAAAAGAGTTTTGGAAATAAA [CACACA_negctrl_site1265]	10.16 ± 0.085
AAGTTATATAAAGGAACACACATTTGATTTTATTTT [CACACA_site6814]	9.98 ± 0.11
TTTAATTATTAAATGGTGCACTTGAAATATAAAAAT	10.7 ± 0.65
CTTTTAATGGTGTAAAGTACTTTCTTAAGGTTCAAA [XGTACX_site8423]	10.9 ± 0.49
TGGAGGTCAGTTCACAGTACCCAGAAAACTCTACGA [XGTACX_site2561]	11 ± 0.62
AAAATGATGTTAATTACACACATCATCTCATAAACA [CACACA_site3017]	9.8 ± 0.014
ATAAAACATAAAAATCGTACAAAGGAGGATATAAGG [XGTACX_site420]	11.3 ± 0.94
ATTATTTATTATTTCTGTACGTATAAAAATAACATT [XGTACX_site1671]	11.7 ± 1.1
ATATACTTACATATTACACACAATATTTTTAAATGT [CACACA_site3627]	10.135 ± 0.007
CTAATCAAAATAAATTAACACACAATTTTAATATTG [CACACA_site7887]	9.65 ± 0.27
